In the supplement of paper PMC3334620:
Over roughly 33,000 sequences, “E-score (-0.5 to 0.5)” has its median near -0.016; the highest 2% begin near 0.31. The list shows a part of the results.

target: Cst6 (UniProt P40535); assay: PBM E-score (8-mer binding enrichment) (E-score (-0.5 to 0.5)); higher = stronger / more preferred TF binding; most listed sequences are background and not binding sites; details: protein concentration: 200 nM; construct: GST-DNA-binding domain
Procedure: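 Universal 'all 10-mer' protein binding microarrays (Agilent AMADID 015681) probed with GST-tagged S. cerevisiae TFs (full-length or DBD) made by in vitro transcription/translation (PURExpress), about 100-200 nM. Bound TF was detected with fluorescent anti-GST. Each ungapped 8-mer (which stands for itself and its reverse complement) is scored by the PBM enrichment score (E-score), a modified Wilcoxon-Mann-Whitney statistic from -0.5 to +0.5, computed with the Universal PBM Analysis Suite. Scale: above 0.35 generally sequence-specific binding.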

Sequence	PBM E-score
AAAATGTG	0.0753
CCGTGATA	0.0349
GAGTGGAC	-0.107
GCGATGAC	0.413
AATCCACA	0.112
CCGTCAAC	0.0147
AGGTTGGG	-0.046
CACCCCAG	-0.0965
TCACCCCA	0.17
AATATCCA	0.0798
AGTATGAC	0.354
GTCGTGTA	0.0765
AACCCACG	0.00976
ATATAGAT	0.225
GTTAATGA	0.183
CGACAGCC	-0.12
AAGACATC	-0.134
CACGCAGG	0.0573
TAGCGTCA	0.399
CAGCCCCG	-0.203
CCATAGCC	-0.163
CCGGCCGA	-0.161
CACTCTTC	-0.0467
ATCGGCAT	0.23
CAGTTGCA	0.0715

Sequence	PBM E-score
CATGTTAC	0.161
GTAGCAAA	0.0341
ATAGCTGA	-0.204
GATTTCCA	-0.0575
AAACCAGG	-0.112
ACCCTCAC	-0.204
GGAAGATA	0.0939
CGCACCTC	-0.215
AAGCTAGA	-0.136
GACCCGCA	-0.15
CCTACTCC	-0.034
GCGCTCCA	-0.238
ACGTACTA	0.13
CGATTCTC	-0.0587
GAGGGGAA	0.00588
AGACCCCT	-0.31
ATCAATGA	0.35
GGCCCACC	-0.228
CGGACGAA	0.149
ACGGGCCC	-0.245
GGACTTGA	-0.336
ATTCTTGG	0.172
ATTAAACC	0.0848
ACCTCCTC	-0.0948
CGCATCGC	-0.137

Sequence	PBM E-score
GAATCTCC	-0.123
CCCTTCTC	-0.337
CTTGTGTA	0.0593
CCGAAAGA	0.0328
CACCGGTG	-0.0383
ATTGATGG	0.142
CGACGGAG	-0.184
CCTACGAA	0.00469
GAAGGTCA	-0.0976
CCGTTCAC	-0.191
ATCGTCGC	-0.0136
CAGCGCGG	0.05
ATCCTCCG	-0.29
GACAATAA	0.23
CTAGTAAC	0.0118
CGACACTC	0.00556
GCGGGTCC	-0.377
GCTATTCC	-0.0713
CGTCCTTA	-0.0944
AAAGAGCG	0.0544
AACAAGCC	-0.0318
GCCCCACA	-0.172
ACATCTGG	-0.0113
GAAGGAGC	-0.358
CTCCACGA	-0.0356

Sequence	PBM E-score
GAATTGAC	0.0822
ATGCCTTG	0.0187
CCAGGGCG	-0.186
AATATAGG	0.212
TCGAACAA	0.233
CGTGGGAC	-0.166
CTGGCTCA	-0.00844
GCGTATAA	0.152
GTAGACAA	0.0542
CATATTCG	0.054
AGTTTGTC	0.0452
ATCGCTAC	-0.0929
ACGGTATG	0.13
AGTTACCG	0.0986
TGAACCAA	0.184
AAATCAAA	0.153
ATCTATAG	0.0424
CTGATCCA	-0.0615
ACATCAAG	0.207
CGCGCTCC	-0.115
GAGTGCTA	-0.245
AACTCCGG	-0.00288
GTGTACTA	0.0551
GTCGGAAA	0.129
ATTCTACG	0.154

Sequence	PBM E-score
GCGCCGCC	0.25
GTAAGGTA	0.123
ACAGCGCC	-0.00011
AAGACCTA	-0.126
CTCGGGTA	-0.0685
ACAGGTCA	-0.105
CGCCCGTC	-0.0631
AATACGGG	-0.0401
GAGTTCCC	-0.282
AGAGTATA	-0.0659
ATGAGCCG	0.0382
ACCTTCTG	-0.00644
AGAGGAAT	-0.0707
CAGTTCTC	-0.0846
GATGCGTA	0.0467
CAAGCTTG	-0.116
ATGCCCTG	-0.0453
CTATCTCA	0.0196
AGACTTTC	-0.0766
AAACCCCC	-0.35
ACATAATC	0.267
CAACAGTA	-0.0866
AATATTCA	0.134
AAGTCCCA	-0.276
CTGAGTGA	0.13

Sequence	PBM E-score
AGTAGATC	-0.13
ATTCCCCG	-0.124
CACTGCTG	-0.0596
CATTTGAG	0.102
AATTTCAT	0.18
CGGGACCA	-0.294
AAAAAGCG	0.092
ACCGACAA	0.133
GGGGCTCA	-0.238
CACTTACA	0.173
CCCTATCC	-0.244
AAAGAAAT	0.269
GCTGTCGA	-0.0648
CACCTCTC	-0.104
CTAAGATA	0.0108
CAGTTCGG	-0.00485
ATGTGTCG	0.00913
CGTGAGCC	-0.0798
GAGCCGGC	-0.177
TCATGAAA	0.174
AGTTTATG	-0.0131
CACAAATC	0.066
CATTGGTC	-0.245
AACGAAAG	0.0561
GGGGTGGA	-0.272

Sequence	PBM E-score
AAAGTTCC	-0.175
GTTTTCGA	0.134
AATCTTAT	0.147
AACATGTA	0.183
TCTACAAA	0.0566
AATGTAGT	0.0175
ACTTGAGA	0.00386
ACCTTGGG	-0.0593
AGGTGGCG	-0.126
TGTGTGAA	0.152
AGCAATAC	0.0323
ACTTTCCG	-0.109
ATCAATTA	0.302
CTTTGAAC	-0.165
AAGTCAAG	-0.114
ATGTTCTG	0.0715
CCATTCCG	-0.112
TCAAACAA	0.172
CACTTCAC	0.00698
AGCGCAAC	-0.0272
CGGATTGC	-0.0601
ATTAAGAA	0.193
